Test results: PubChem BioAssay AID1745845 (National Center for Advancing Translational Sciences (NCATS), 2022)
Several values for one entry are separate records, joined by “and”; a condition that tells them apart may be missing. Identical values can stand only once. Out of some 360,000 compounds screened, about 2,600 (0.72%) were called active. Inconclusive results, whose numbers are uncertain, are shown with a selection of clear calls. Calls come from the whole dose curve; as a rule, active = well fitted inhibition curve with a large enough effect; inconclusive = small, poorly fitted or top-dose-only effect; inactive = no such curve, though single readings can be large or run the other way. Potencies beside an inconclusive call are fits to weak or partial responses and may not hold up.

Assay: Primary qHTS for Inhibitors of ATXN expression; note: nearly all actives have a fitted effect of over 55% in size
Details: HEK-293 ATXN2-luciferase reporter, luminescence, 24 h; activity change, negative = inhibition: at 57 µM (top of the series)
Summary of the method: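 ATXN2-luciferase reporter cells (luciferase flanked by upstream and downstream ATXN2 gene portions) were treated 24 h at 37 °C with compounds at up to 57 uM. SteadyGlo luminescence gave expression; GF-AFC fluorescence gave viability.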
% is set by controls: 0 for no effect and ±100 for the full control effect; potency is the fitted concentration of half-maximal effect; tags give direction and shape of the fitted curve.

Question: Which Potency does the source give for `Cc1cc(C)cc(NC(=O)c2cc(C)n(Cc3cccs3)c2C)c1` here?
Answer: Its Potency is inconclusive: 39.8 µM [inhibitor, single point].

Question: For `Cc1ccc(Nc2nc(C)c(NC(=O)c3ccc(C)cc3)c(Nc3ccc(C)cc3)n2)cc1`, which Potency is on record?
Answer: The Potency was inconclusive: 39.8 µM [inhibitor, single point].

Question: Which Potency does the source give for `NC(=O)c1cccc(-c2ccnc3c2CC(C(=O)Nc2cccc(Oc4ccccc4)c2)O3)c1` (stereo not drawn) here?
Answer: The Potency was inconclusive: 31.6 µM [inhibitor, single point].

Question: For `O=[N+]([O-])c1c(Nc2ccccc2O)cc(Cl)c2nonc12`, which Potency is on record?
Answer: Its Potency is active: 12.6 µM.

Question: With `CCCCCCCCN1C(=O)[C@H](CC(=O)NCCCC)C[C@@]2(C(=O)OC)CCCCC=C12` as the compound, how does the “activity change, negative = inhibition” value read?
Answer: Its value is inactive: -14.6%.

Question: Which “activity change, negative = inhibition” value does the source give for `O=C(N/N=C/c1ccc(Br)s1)c1ccco1` here?
Answer: Its value is inactive: 27.2%.

Question: With `CCCOc1ccc(CN(CCC#N)C(=S)NC(=O)c2ccccc2)cc1` as the compound, how does the Potency read?
Answer: Its Potency is inconclusive: 39.8 µM [inhibitor, single point].

Question: For `CCOc1ccc(CNCc2ccccc2Cl)cc1`, which “activity change, negative = inhibition” value is on record?
Answer: The value was inactive: -7.19%.

Question: For `Cc1ccc(Nc2nc(-c3c(C)nc4ccccn34)cs2)cc1`, which Potency is on record?
Answer: Its Potency is inconclusive: 39.8 µM [inhibitor, single point].

Question: With `O=S(=O)(O)c1cc(Cl)cc(N=Nc2ccc(O)cc2O)c1O` as the compound, how does the Potency read?
Answer: Its Potency is inconclusive: 28.2 µM [inhibitor, single point].

Question: With `COc1ccccc1C(=O)/C=C/c1ccc(N2CCCCC2)c([N+](=O)[O-])c1` as the compound, how does the Potency read?
Answer: Its Potency is inconclusive: 39.8 µM [inhibitor, single point].

Question: Which Potency does the source give for `CCOc1ccccc1NC(=O)c1nnn(CC(=O)Nc2ccccc2CC)c1N` here?
Answer: The Potency was inconclusive: 8.91 µM [inhibitor, partial curve, poor fit].

Question: Which Potency does the source give for `COc1ccc2nc3cc(Cl)ccc3c(Nc3cc(CN4CCCC4)c(O)c(CN4CCCC4)c3)c2n1` here?
Answer: Its Potency is inconclusive: 43.2 µM [inhibitor, single point].

Question: With `Cc1cccc(NC2=C(NC(=O)c3ccccc3)C(=O)c3ccccc3C2=O)c1` as the compound, how does the Potency read?
Answer: The Potency was inconclusive: 14.1 µM [inhibitor, partial curve, poor fit].

Question: With `Cc1csc(SCC(=O)Nc2cc(S(=O)(=O)N3CCCC3)ccc2Cl)n1` as the compound, how does the “activity change, negative = inhibition” value read?
Answer: Its value is inactive: -11.8%.

Question: With `Cc1ccc(-c2nnc(N3CCCCC3)c3ccccc23)cc1S(=O)(=O)N(C)C` as the compound, how does the Potency read?
Answer: Its Potency is inconclusive: 28.2 µM [inhibitor, single point].

Question: For `CCOC(=O)CCCCC(=O)c1[nH]c(=O)[nH]c1Cn1cnc2ccccc21`, which “activity change, negative = inhibition” value is on record?
Answer: Its value is inactive: 8.17%.

Question: For `CC(C)CCNC(=O)c1ccc2c(c1)N(C)C(=O)c1ccccc1S2`, which “activity change, negative = inhibition” value is on record?
Answer: The value was inactive: 7.54%.

Question: Which Potency does the source give for `CCC(CC)C1C(C#N)=C(N)Oc2n[nH]c(-c3ccccc3)c21` (stereo not drawn) here?
Answer: The Potency was inconclusive: 39.8 µM [inhibitor, partial curve, poor fit].

Question: Which Potency does the source give for `Cc1ccc(NC(=O)c2ccc(CNc3c(N4CCC(C)CC4)c(=O)c3=O)cc2)cc1` here?
Answer: The Potency was inconclusive: 4.47 µM [inhibitor, partial curve, poor fit].

Question: For `Cc1ccc(-c2n[nH]c3c2C(c2cccs2)N(c2ccc(Cl)cc2)C3=O)cc1` (stereo not drawn), which Potency is on record?
Answer: Its Potency is inconclusive: 39.8 µM [inhibitor, single point].

Question: Which Potency does the source give for `CCOC(=O)C1(CCC(C)C)CC(CSc2nc3ccccc3[nH]2)OC1=O` (stereo not drawn) here?
Answer: Its Potency is inconclusive: 14.1 µM [inhibitor, partial curve, poor fit].

Question: For `CCCOc1cccc(C2c3c(oc4cc(C)c(C)cc4c3=O)C(=O)N2CCCN2CCOCC2)c1` (stereo not drawn), which Potency is on record?
Answer: Its Potency is inconclusive: 25.1 µM [inhibitor, single point].

Question: With `Cc1ccc(C(=O)Nc2cccc(C(F)(F)F)c2)cc1NC(=O)c1cnnc2ccccc12` as the compound, how does the Potency read?
Answer: The Potency was inconclusive: 3.55 µM [inhibitor, single point].

Question: For `COc1ccc(S(=O)(=O)N(C)C[C@@H]2OCc3cnnn3CCCC(=O)N([C@@H](C)CO)C[C@@H]2C)cc1`, which “activity change, negative = inhibition” value is on record?
Answer: Its value is inactive: -6.19%.

Question: With `Cc1ccc(C(=O)c2cc([N+](=O)[O-])ccc2N2CCN(C)CC2)cc1` as the compound, how does the Potency read?
Answer: The Potency was inconclusive: 8.91 µM [inhibitor, partial curve, poor fit].

Question: Which “activity change, negative = inhibition” value does the source give for `O=C1COc2ccc(-c3cc(-c4ccc(F)cc4)c4c(n3)-c3ccccc3OC4)cc2N1` here?
Answer: Its value is inactive: 7.68%.

Question: For `CSc1nn(Cc2ccc(F)cc2)c(N)c1S(=O)(=O)c1ccc(Cl)cc1`, which Potency is on record?
Answer: Its Potency is inconclusive: 39.8 µM [inhibitor, single point].

Question: Which Potency does the source give for `COc1cccc(CSc2nc(-c3ccccc3OC)nc3c2Cc2c(CO)cnc(C)c2O3)c1` here?
Answer: The Potency was inconclusive: 28.2 µM [inhibitor, single point].

Question: For `Cc1ccccc1C(C(=O)NC1CCCC1)N(C(=O)Cn1cnc2ccccc21)c1cccc(F)c1` (stereo not drawn), which “activity change, negative = inhibition” value is on record?
Answer: The value was inactive: -6.33%.

Question: For `COc1ccccc1-c1sc2cc3c(cc2c1C#Cc1cncn1C)OCO3`, which Potency is on record?
Answer: The Potency was inconclusive: 35.5 µM [inhibitor, single point].

Question: For `COc1ccc(C(=O)Nc2ccc3[nH]ccc3c2)cc1`, which Potency is on record?
Answer: The Potency was inconclusive: 33.6 µM [inhibitor, single point].

Question: For `COc1ccc(CC(=O)Nc2nc(-c3ccc(F)c(F)c3)cs2)cc1`, which Potency is on record?
Answer: The Potency was inconclusive: 15.8 µM [inhibitor, partial curve, poor fit].

Question: With `COC(=O)c1ccc(NC(=O)CN(c2cccc(C(F)(F)F)c2)S(C)(=O)=O)cc1` as the compound, how does the “activity change, negative = inhibition” value read?
Answer: The value was inactive: -13.7%.

Question: With `CCN1/C(=C/C(C)=O)Sc2ccc(OC)cc21` as the compound, how does the “activity change, negative = inhibition” value read?
Answer: Its value is inactive: -15.4%.

Question: For `CC(C)=CCCC1(C)C=Cc2c(c(C)cc3c2[nH]c2cc(O)ccc23)O1` (stereo not drawn), which Potency is on record?
Answer: Its Potency is inconclusive: 35.5 µM [inhibitor, single point].

Question: Which “activity change, negative = inhibition” value does the source give for `CC(C)Oc1ccc(-c2nc(NCC3CCCO3)c3ccccc3n2)cc1` (stereo not drawn) here?
Answer: Its value is inactive: 1.58%.

Question: With `C#C[C@]1(OC(C)=O)CCC2C3CCC4=CC(=O)CC[C@@H]4C3CC[C@@]21C` (stereo partly drawn) as the compound, how does the Potency read?
Answer: Its Potency is inconclusive: 39.8 µM [inhibitor, single point].

Question: Which Potency does the source give for `O=C(NCCc1ccccc1)C1Cc2c(-c3ccccc3Oc3ccccc3)ccnc2O1` (stereo not drawn) here?
Answer: The Potency was inconclusive: 39.8 µM [inhibitor, single point].

Question: For `CCOc1ccc(N(CC(=O)Nc2ccc(C)cc2)S(=O)(=O)c2c(C)noc2C)cc1`, which “activity change, negative = inhibition” value is on record?
Answer: Its value is inactive: -2.93%.

Question: With `COc1ccc(C(=O)CSc2nnc(-c3cccs3)n2-c2ccccc2)cc1` as the compound, how does the Potency read?
Answer: Its Potency is inconclusive: 0.158 µM [inhibitor, full curve, poor fit].

Question: Which activity change, negative = inhibition does the source give for `O=C(NC(Cc1ccc(O)cc1)C(=O)O)c1ccco1` (stereo not drawn) here?
Answer: The activity change, negative = inhibition was inconclusive: -49.8% [inhibitor].

Question: Which Potency does the source give for `Fc1ccc(NC(=S)Nc2ccc(F)c(Cl)c2)cc1Cl` here?
Answer: Its Potency is inconclusive: 25.1 µM [inhibitor, single point].

Question: With `CCCCOc1cccc(C(=O)Nc2ccc(NC(=O)c3cccs3)cc2)c1` as the compound, how does the Potency read?
Answer: The Potency was inconclusive: 14.1 µM [inhibitor, partial curve, poor fit].

Question: Which “activity change, negative = inhibition” value does the source give for `Nc1c(-c2nc(-c3ccccc3Cl)no2)nnn1-c1ccccc1F` here?
Answer: Its value is inactive: 73.6%.

Question: Which Potency does the source give for `Cc1ccc(O)c([C@H](CCN(C(C)C)C(C)C)c2ccccc2)c1` here?
Answer: Its Potency is inconclusive: 25.1 µM [inhibitor, partial curve, poor fit].

Question: Which Potency does the source give for `C[C@H]1CN([C@@H](C)CO)S(=O)(=O)c2ccc(C3=CCCC3)cc2O[C@@H]1CN(C)C(=O)C1CCCCC1` here?
Answer: Its Potency is inconclusive: 35.5 µM [inhibitor, single point].

Question: For `COc1ccc2c(c1)[C@H]1[C@H](CO2)[C@H](c2ccccc2)[C@]2(C)C(=O)Nc3ccccc3C(=O)N12`, which Potency is on record?
Answer: Its Potency is inconclusive: 20 µM [inhibitor, partial curve, poor fit].

Question: With `CC(C)(C)c1ccc(OCCC(=O)Nc2cccc(S(=O)(=O)NC3=NCCCCC3)c2)cc1` as the compound, how does the Potency read?
Answer: The Potency was inconclusive: 14.1 µM [inhibitor, partial curve, poor fit].

Question: For `CC(C)Oc1cccc(C(=O)Nc2ccc3oc(-c4ccccc4)nc3c2)c1`, which Potency is on record?
Answer: Its Potency is inconclusive: 39.8 µM [inhibitor, single point].

Question: Which Potency does the source give for `CCOc1ccc(C(NC(=O)c2cc(OC)c(OC)c(OC)c2)c2cc(Cl)c3cccnc3c2O)cc1` (stereo not drawn) here?
Answer: The Potency was inconclusive: 7.94 µM [inhibitor, partial curve, poor fit].

Question: For `COc1ccc(NC(=O)NCCCN2CCN(c3cc(C)ccc3C)CC2)cc1`, which Potency is on record?
Answer: The Potency was inconclusive: 2.12 µM [inhibitor, full curve].

Question: Which “activity change, negative = inhibition” value does the source give for `CCCC[n+]1ccn(C2=C([O-])c3ccccc3C(=O)/C2=N\S(=O)(=O)c2ccc(Br)cc2)c1` here?
Answer: Its value is inactive: -11.2%.

Question: With `Cc1nnc(SCC(N)=O)n1CC1CCCO1` (stereo not drawn) as the compound, how does the Potency read?
Answer: The Potency was inconclusive: 39.8 µM [inhibitor, single point].

Question: Which “activity change, negative = inhibition” value does the source give for `O=[N+]([O-])/C(C(Cl)=C(Cl)Cl)=C(/Sc1ccccc1)N1CCCCC1` here?
Answer: The value was inactive: -13.2%.

Question: With `CCCCCCCCNCCS(=O)(=O)NCc1ccccc1OC` as the compound, how does the Potency read?
Answer: The Potency was inconclusive: 39.8 µM [inhibitor, single point].

Question: For `COc1cccc(N=C(N)N=C(N)N)c1`, which “activity change, negative = inhibition” value is on record?
Answer: The value was inactive: 3.59%.

Question: With `CCOc1ccc(CCNC(=O)c2cc3c(-c4ccccc4F)nn(C)c3s2)cc1OCC` as the compound, how does the Potency read?
Answer: The Potency was inconclusive: 3.55 µM [inhibitor, full curve].

Question: For `CCOC(=O)c1ccc(NC(=O)c2ccc(-c3cccc(Cl)c3C)o2)cc1`, which Potency is on record?
Answer: Its Potency is inconclusive: 39.8 µM [inhibitor, single point].

Question: With `COc1cc2c(c(OC)c1OC)-c1ccc(SC)c(=O)cc1C(NC(=O)C(F)(F)F)CC2` (stereo not drawn) as the compound, how does the “activity change, negative = inhibition” value read?
Answer: Its value is inactive: 15.7%.

Question: Which Potency does the source give for `COc1ccc(-c2sc3ccc(N4CCOCC4)cc3c2C#CCCO)cc1` here?
Answer: The Potency was inconclusive: 22.4 µM [inhibitor, single point].

Question: For `CCCCOc1ccc(CC(=O)NO)cc1`, which Potency is on record?
Answer: The Potency was inconclusive: 39.8 µM [inhibitor, partial curve, poor fit] and inconclusive: 21.7 µM [inhibitor, partial curve, poor fit] and inconclusive: 31.6 µM [inhibitor, partial curve, poor fit].

Question: For `Nc1nc2ccc(Cl)cc2cc1C(=O)NCCc1c[nH]c2ccccc12`, which Potency is on record?
Answer: The Potency was inconclusive: 31.6 µM [inhibitor, single point].
